# Measured values reported in paper PMC10668032.
# Some of the results follow. At the low end of the ranking, values are background and their order means little.
# Biological target: SIX1-Q177R homeodomain (UniProt Q15475)
# Assay: universal protein binding microarray
# Conditions: Universal all-10-mer PBM (8x60K, AMADID 030236), 300 nM GST-tagged protein, Alexa Fluor 488 anti-GST; buffer, salt, pH and temperature not stated; high values mean tight binding; most listed sequences are background and not binding sites; double strand, one strand shown
row,Sequence,binding signal [E-score]
1,GGACAGGA,-0.247
2,GATTGTCA,-0.186
3,AGACCTGA,-0.155
4,CGGGTCCA,0.128
5,TTAATTAA,-0.0342
6,ATCTACCC,0.117
7,AAGGGAAA,-0.133
8,GCACGAGA,-0.0569
9,CTCTGTTA,0.0956
10,TAACACTA,0.384
11,ACGACGAA,-0.118
12,CGTGTACC,0.436
13,GTCATACA,0.102
14,CAGAGTCG,0.124
15,CTTACGTA,-0.23
16,ATCAATCC,0.0466
17,CCTAAAGC,-0.202
18,GGTGTCCA,0.48
19,TCTGAGAA,-0.249
20,CATCTAGC,-0.172
21,GGACGATA,0.113
22,ACCTAAAG,-0.0644

row,Sequence,binding signal [E-score]
1,TCAGCAAA,-0.3
2,AATGGGGA,-0.21
3,ACAGAGAT,-0.181
4,AGACCATC,-0.249
5,ACATTGAA,-0.161
6,CACTATTC,0.078
7,GTAGCTGA,0.0461
8,ATTAGTAA,-0.15
9,CAAAACGA,-0.0491
10,AACAGACC,-0.0836
11,ACAACTGG,-0.00601
12,AGCGGAAT,-0.117
13,ATGCGTAC,0.0811
14,GGCGCAAA,-0.0903
15,TAGCGGAA,-0.236
16,AGGTTCTC,-0.0803
17,AAGTGAGA,-0.201
18,GACCACGC,-0.0824
19,AAGAAAAA,-0.188
20,AACTTGGA,0.107
21,CAGTAAAC,-0.0308
22,CGGTTCAG,-0.0447

row,Sequence,binding signal [E-score]
1,CAGAACCC,0.109
2,TCCGATCA,-0.0591
3,CAGATTCC,-0.0492
4,GATGTGTA,0.19
5,AGAAGTCT,-0.233
6,CCCTCACG,0.165
7,AGACATGC,-0.175
8,CCAACCGA,-0.0171
9,CTAGTTCA,-0.113
10,AAATTTCC,-0.188
11,ACACCACT,0.483
12,CACCGTAC,0.365
13,GAAAAGAC,-0.0422
14,AACATTCC,-0.265
15,CTTGTAAA,-0.032
16,CGAATCGC,0.00297
17,AGACTTCC,-0.162
18,AAAGATTA,-0.183
19,GCCACGTA,-0.282
20,GTCTCCAC,-0.225
21,TATCCTGA,0.0194
22,GCTAAAAC,0.0107

row,Sequence,binding signal [E-score]
1,ATGATCGA,-0.099
2,AAAGTGGG,0.055
3,ATTCAAAT,-0.272
4,CCTGGTTA,-0.15
5,CTAACCCA,-0.0268
6,GGAGAAAA,-0.209
7,ATTTAGCC,-0.0392
8,AGAGGACG,0.00352
9,AAGCACAC,0.276
10,GACCCTGA,-0.0564
11,ACATACCC,0.17
12,GGGGCAAC,-0.137
13,ATTACATC,-0.0692
14,CTCCGCTC,-0.0603
15,ACAATCGG,0.0827
16,ATAGTCTA,-0.246
17,ATGGATGA,0.0307
18,TGTCGCAA,0.141
19,CTCCGCGA,-0.0428
20,TAGAAACA,-0.101
21,AACGGGGT,0.205
22,CGGCGGGA,0.0209

row,Sequence,binding signal [E-score]
1,CGGCCCAA,-0.0546
2,GAGCACAC,0.262
3,AGTTATAT,-0.0876
4,ATGGGCAC,0.05
5,CGTTCAGA,-0.143
6,CGTAGAAC,0.0685
7,CACAACCG,0.0968
8,CAAAAGCA,-0.0783
9,CCATAGAA,0.0571
10,GACAAACA,0.0953
11,CTCCGACA,0.175
12,CGACAATA,-0.191
13,GGGCCGAA,-0.198
14,CGTGCACG,0.17
15,CACGACTC,0.304
16,ACTTTCCT,-0.302
17,GGGACCCC,0.211
18,CTCGTCAA,-0.0958
19,CCGACCGA,-0.154
20,ATACTGTC,-0.0234
21,ATCCCACC,0.133
